Results taken from PubChem BioAssay AID493208 (National Center for Advancing Translational Sciences (NCATS), 2011).
The campaign covered roughly 44,000 compounds. About 340 (0.77%) were called active. Another 5% or so got no clear call; they are omitted. Calls come from the whole dose curve; as a rule, active = well fitted inhibition curve with a large enough effect; inconclusive = small, poorly fitted or top-dose-only effect; inactive = flat fitted curve, though single readings scatter. The list shows a part of the results.

Assay: Acumen qHTS Assay for Inhibitors of the mTORC1 Signaling Pathway in MEF (Tsc2-/-, p53-/-) Cells: Sytravon;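 note: plate controls were DMSO for no effect and rapamycin for full effect; nearly all actives have a fitted effect of over 50% in size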
Conditions: phospho-rpS6 immunofluorescence/PI, 24 h; series mostly up to 38.3 µM; activity change, negative = inhibition: at the top concentration
Outline: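 Tsc2-/-, p53-/- mouse embryonic fibroblasts (empty-vector line) exposed to compound 24 hrs at 37 C, fixed, immunostained for phospho-rpS6 and counterstained with propidium iodide. Acumen laser scanning gives % positive cells from Alexa 488/PI ratio, thresholded using 7.5 nM rapamycin; PI count gives viability.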

Activity change, negative = inhibition, inactive:
Cc1ccc(NC(=O)CCc2nnc3n(C)c(=O)c4sccc4n23)cc1C 1.41%
CSC1=NC2(CCN(C(=O)NC3CCCCC3)CC2)N=C1c1ccc(C)c(C)c1 0.0621%
Cc1ccc(CNC(=O)CC(C)S(=O)(=O)c2cc3c(cc2C)NC(=O)CO3)cc1 (stereo not drawn) 1.16%
CC(C)Oc1ccc(C(=O)N(Cc2ccco2)c2ccccn2)cc1 -21.1%
Cc1ccc(C)c(NC(=O)CN2C(=O)C(C)(C)c3ccccc32)c1 -2.05%
O=C(Nc1sc2c(c1C(=O)NCc1ccco1)CCCC2)c1cc(=O)c2ccccc2o1 0.16%
COc1ccc(Br)cc1CNC(=O)c1cc2n(n1)CCCN(Cc1ccc(C)cc1)C2=O 0%
CCc1ccc(CN(Cc2ccco2)c2cnc(S(C)(=O)=O)nc2C(=O)Nc2ccccc2Cl)cc1 -8.84%
COC(=O)c1scc(-c2ccc(C)cc2)c1S(=O)(=O)N1CCN(c2cccc(OC)c2)CC1 1.44%
CCc1nnc(SC(CC)C(=O)Nc2cccc(OC)c2)c2cc3oc(C)cc3n12 (stereo not drawn) -14.3%
Cc1ccc(Sc2c(C)nn(C(C)(C)C)c2OC(=O)C(C)(C)C)cc1 -2.88%
O=C(NCc1ccco1)c1ccc2c(c1)N(Cc1ccc(Cl)cc1)C(=O)c1ccccc1S2=O (stereo not drawn) -0.652%
Cc1ccc(NC(=O)Nc2ccc3snnc3c2)cc1C -9.8%
CCN(c1ccccc1)c1nnc(NC(=O)Nc2ccccc2F)s1 -0.121%
Cc1ccc2c(=O)cc(C(=O)Nc3sc4c(c3C(=O)NCc3ccco3)CCCC4)oc2c1C -3.62%
CCc1ccc(CNC(=O)c2nn(-c3ccc(C)c(C)c3)nc2CO)cc1 -0.683%
CCC(C)NC(=O)Cn1ncc2c(C)n(Cc3ccc(F)cc3)c(C)c2c1=O (stereo not drawn) -7.45%
Cc1cc(=O)[nH]c2nnc(SCC(=O)Nc3cc(C(F)(F)F)ccc3Cl)n12 -0.0087%
COC(=O)c1ccc(Cn2c(=O)cc(C)c3c(C)nn(C)c32)cc1 4.13%
CC(=O)CSc1nc(-c2ccccc2)[nH]c1S(=O)(=O)c1ccc(C)cc1 -2.79%
CCOc1ccc(Sc2cc(C(=O)NCc3ccc(F)cc3)c3ccccc3n2)cc1 0%
CCn1cc(C(=O)N2CCN(c3ccccc3)CC2)c(=O)c2cc(S(=O)(=O)N(C)C3CCCCC3)ccc21 -0.461%
CN(C)c1ccc(C(CNC(=O)COc2ccccc2)N2CCOCC2)cc1 (stereo not drawn) 24.7%
O=C(CN1C(=O)CCSc2ccc(S(=O)(=O)N3CCCC3)cc21)Nc1cccc(Cl)c1 -6.65%
CCOc1ccc(NC(=O)Nc2c(C)n(C)n(-c3ccccc3)c2=O)cc1 -1.3%
CCN(CC)S(=O)(=O)c1ccc2c(c1)N(CC(=O)NCc1ccccc1)C(=O)CS2 0.534%
COc1cc(Cl)c(C)cc1NC(=O)CSc1cc(=O)n(C)c2cc(Cl)ccc12 -0.916%
Cc1c(Cl)cccc1NC(=O)N1CCN(Cc2cc(=O)n3nc(-c4ccccc4F)sc3n2)CC1 2.74%
CCCS(=O)(=O)N1CCC(N2CCN(Cc3ccc(C)cc3)C(=O)C2=O)CC1 0%
Cc1nn(C)c2c1c(-c1ccccc1)cc(=O)n2Cc1ccccc1F 0.243%
Cc1ccc(-c2noc(CCC(=O)Nc3ccc(F)cc3Cl)n2)cc1 -21%
COc1ccc(NC(=O)c2cccc(N3CCCS3(=O)=O)c2)cc1 -1.53%
NC(=O)CSc1ncc2c(n1)-c1ccccc1N(Cc1ccccc1)S2(=O)=O -5.89%
COc1ccc(NS(=O)(=O)c2ccc3c(c2)CCN3C(=O)C2CC2)cc1OC -5.82%
Cc1cc(C)c2c(=O)cc(C(=O)NCCc3ccc(S(N)(=O)=O)cc3)oc2c1 0.309%
COc1cccc(CNC(=O)Cn2c(=O)c3cccn3c3ccc(F)cc32)c1OC -4.58%
Cc1ccccc1CNC(=O)C(=O)NCC(c1ccco1)S(=O)(=O)c1ccc(F)cc1 (stereo not drawn) 4.26%
Cc1cccc(NC(=O)CSc2nnc(-c3cccs3)o2)c1 -7.5%
Cc1noc2ncnc(Nc3ccc(F)cc3)c12 -0.818%
Cc1cccc(NC(=O)C(c2ccccc2)N2Cc3ccccc3C2=O)c1C (stereo not drawn) -1.89%
COc1ccccc1N1CCN(C(=O)CCn2cnc3onc(-c4ccc(F)cc4)c3c2=O)CC1 4.17%
COc1cccc2cc(-c3nnc(Nc4ccccc4C)s3)c(=O)oc12 -1.4%
Cc1cc(F)ccc1NC(=O)C1CCCN(c2nnc(-n3c(C)ccc3C)s2)C1 (stereo not drawn) -7.15%
Cc1cc(C)cc(N2C(=O)CS(=O)(=O)C23C(=O)N(Cc2ccc(F)cc2)c2ccc(C)cc23)c1 (stereo not drawn) 5.91%
COc1ccc(NC(=O)Cn2c(=O)nc(-c3ccccc3)c3ccccc32)cc1OC 1.01%
Cn1ncc(C(=O)N2CCN(c3ccccc3)CC2)c1C1CCN(C(=O)OC(C)(C)C)CC1 0.431%
CCOc1ccc(-c2cc3nc(C4CCN(C(=O)OC(C)(C)C)CC4)c(C(=O)Nc4ccc(C(=O)OC)cc4)cn3n2)cc1 -15.8%
Cc1ccc(CCNC(=O)NCc2noc3ccc(C)cc23)cc1 -4.63%
